# Assay results as given in article PMC9240354, “Pharmacokinetics, Pharmacodynamics and Antiviral Efficacy of the MEK Inhibitor Zapnometinib in Animal Models and in Humans” (Frontiers in Pharmacology, 2022).
# System: MEK1/2
# Assay: phosphorylation of MEK and ERK in PMA-stimulated human PBMCs (Wes)
# Details: 50 µg/ml 1 h, then 400 nM PMA 30 min
smiles,measurement,value
"O=C(O)c1ccc(F)c(F)c1Nc1ccc(I)cc1Cl [zapnometinib, 2-(2-Chloro-4-Iodophenylamino)-N-3,4-Difluoro benzoic acid]",phosphorylation of ERK1/2,inhibition of the phosphorylation of the MEK1/2-dependent kinase ERK1/2
